In PMC7819943, “Rice protein-binding microarrays: a tool to detect cis-acting elements near promoter regions in rice” one finds binding signal data, which are given here for 42 sequences.

Some of the results follow.

The target of the test is T1, OsWOX13 (Oryza sativa, UniProt Q5QMM3 1-267).
T1 sequence: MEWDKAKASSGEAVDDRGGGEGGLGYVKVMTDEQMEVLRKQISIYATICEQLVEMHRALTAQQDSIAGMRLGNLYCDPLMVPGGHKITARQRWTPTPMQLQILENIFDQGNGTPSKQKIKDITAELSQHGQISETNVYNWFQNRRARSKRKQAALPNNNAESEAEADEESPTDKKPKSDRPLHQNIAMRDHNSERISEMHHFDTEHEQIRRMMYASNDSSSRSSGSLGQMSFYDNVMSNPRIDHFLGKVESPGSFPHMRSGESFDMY
As to the kind of experiment: protein-binding microarray (RPBM); PBS, 2% BSA, 51.3 ng/ul salmon testes DNA, 50 uM zinc acetate, 200 nM TF, 25 C, 1 h; high values mean tight binding. As to conditions: protein: recombinant; tags: N-terminal polyhistidine and DsRed monomer fusion (pET32a); label: CyDye5-dUTP incorporated in the synthesized complementary strand; 3' TTTTT single-stranded linker to array surface; dsDNA, one strand shown. The procedure, abridged:
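Transcription factors were each fused at the N-terminus to a polyhistidine tag plus DsRed and expressed in E. coli BL21-CodonPlus before Ni–NTA purification. Binding to a double-stranded custom Agilent array was carried out with 200 nM protein at 25 °C for 1 h in PBS, 2% BSA, salmon testes DNA and 50 µM zinc acetate. The binding signal is per-feature fluorescence intensity, in arbitrary units, on an Axon 4000B scanner.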
On to “AACAATATATAGGTAATTAATTGATGGTTAAAGTTTAAATCGGAGTCACCTAGTGCAG”, for which the binding signal was 13800 fluorescence intensity (a.u.). The result for “TATTGATTTAATGAAACTAATTTGGTATTATAAATATTACCGGAGTCACCTAGTGCAG” reads 32200 fluorescence intensity (a.u.). “TTTTAATCTTTGGCCAATTATGGTTGAATACAGCCAGCTCCGGAGTCACCTAGTGCAG”: the binding signal is 7840 fluorescence intensity (a.u.). As for “GGTGCAATCATATTATAGATTGGATTAATAATTTAAGAGACGGAGTCACCTAGTGCAG”, the binding signal is 40200 fluorescence intensity (a.u.). With “GTGAAGATTAAGAAAATTTAAACACCTCGTGAATGCAGAGCGGAGTCACCTAGTGCAG” the figure was 4080 fluorescence intensity (a.u.). The result for “CTCTTCCAATCTAAAATAACGAATGCAGCCTTAGGAAATGCGGAGTCACCTAGTGCAG” reads 3480 fluorescence intensity (a.u.). In the case of “GCTTGACTAACATATTCTGTTGGATTGCTACCGCGCCATGCGGAGTCACCTAGTGCAG”, the binding signal is 7150 fluorescence intensity (a.u.). With “AGAAACTAATTGCATAGTTTGCATGTAAATTGAGAGACGGCGGAGTCACCTAGTGCAG” the figure was 25700 fluorescence intensity (a.u.).

Consider “CTATTGATCAAACAGACAAGTATGGATGCTCACATGAGCACGGAGTCACCTAGTGCAG”, for which the binding signal was 5180 fluorescence intensity (a.u.). As for “CAAATTGGAATAACCAGCAGCGAGACAATGGAGGCAGGCACGGAGTCACCTAGTGCAG”, the binding signal is 6250 fluorescence intensity (a.u.). Turning to “CGTAATCTAGATTTGGTTTGAGGCCCTACCAAAATATTGGCGGAGTCACCTAGTGCAG”, the binding signal was 3700 fluorescence intensity (a.u.).

On to “CTTACATGATTATCAACTTATAGTTGATTTGGGATAACCACGGAGTCACCTAGTGCAG”, for which the binding signal was 34300 fluorescence intensity (a.u.). With “AATATCAAAATTTAATTTGAAGAATGAGATAGCCACTCTGCGGAGTCACCTAGTGCAG” the figure was 4560 fluorescence intensity (a.u.); with “CAATACTAAATAGATAATTGCTAGCTAATCTTCCTTGAGTCGGAGTCACCTAGTGCAG”, 19900 fluorescence intensity (a.u.); with “ACCCTCAAATTATTTCCATAAACTCAGTTCTATCCATCACCGGAGTCACCTAGTGCAG”, 7940 fluorescence intensity (a.u.). The result for “CCAGACAGGGTTATCAATCTTGTTCTTCAATACCTAACCACGGAGTCACCTAGTGCAG” reads 5630 fluorescence intensity (a.u.); that for “ATGTTAATTGTAGAGCATGGCATGGATCTAAATTTGAGAGCGGAGTCACCTAGTGCAG”, 19000 fluorescence intensity (a.u.). Take “TCCTGATCAAATTTCAGGAAACATTCAGTGAGAAGGCGATCGGAGTCACCTAGTGCAG”: the binding signal is 4280 fluorescence intensity (a.u.). As to “TAAAATCAATTAGCTGATGAGGGAATATAAGCCTACGGGCCGGAGTCACCTAGTGCAG”, the binding signal is 24600 fluorescence intensity (a.u.). Take “TATACTAAATTGGAGCACGCTGATCACGTTCTGCATCAACCGGAGTCACCTAGTGCAG”: the binding signal is 9410 fluorescence intensity (a.u.). The result for “GTACTAGATTGGAGCTTAATTTCATAAAGTCTGGTAGAGTCGGAGTCACCTAGTGCAG” reads 44200 fluorescence intensity (a.u.); that for “TCCAAATTTATTTACAGCAGAGTGTACAAATCATCTAGAGCGGAGTCACCTAGTGCAG”, 12100 fluorescence intensity (a.u.).

Take “ACTTTAATTTTGGTCAGCTCCCGTACATGTAGTTAACTTGCGGAGTCACCTAGTGCAG”: the binding signal is 7810 fluorescence intensity (a.u.). The result for “AACCTAAAATTAAATTTTAAATTTTGATTCATAAGCATAACGGAGTCACCTAGTGCAG” reads 11600 fluorescence intensity (a.u.); that for “ATAGATTACTTGTTTGGTGATTAAACGTTGCAACACACAGCGGAGTCACCTAGTGCAG”, 22400 fluorescence intensity (a.u.); that for “GCATCTAATTTAAACTTTCAAATCTTTCAACTCGAAAATTCGGAGTCACCTAGTGCAG”, 4920 fluorescence intensity (a.u.). As for “TTCTGTAATTGATGCTCCTGCATTTTAGTGTATAAGTGTACGGAGTCACCTAGTGCAG”, the binding signal was 36500 fluorescence intensity (a.u.). For “AGTTTAACTAAATTTGTAGAATAACATGATCAACATCTATCGGAGTCACCTAGTGCAG”, the binding signal is 9980 fluorescence intensity (a.u.). Regarding “CATAGTCACATGATGGAGATTGGAGAGTCTACTTAAGTAGCGGAGTCACCTAGTGCAG”, the binding signal is 6700 fluorescence intensity (a.u.). The result for “AAAATTTGACAATGACAAATTTTAGAAGGGTTGAAAGTGCCGGAGTCACCTAGTGCAG” reads 17900 fluorescence intensity (a.u.); that for “AATTACAAGGGCCAATCAATCAATCAATGATGGCTCGTGCCGGAGTCACCTAGTGCAG”, 45300 fluorescence intensity (a.u.); that for “ACAGTAATTAAGCATCCACAAGTACGTGACGACGCGGGCACGGAGTCACCTAGTGCAG”, 9160 fluorescence intensity (a.u.). Regarding “AAATAATTACACAATAATTATATGTAAATTGCGAGACGAACGGAGTCACCTAGTGCAG”, the binding signal was 50700 fluorescence intensity (a.u.). In the case of “AAATTACGTAATTATAATTTATTTTGTTGTGAGTTGTTTTCGGAGTCACCTAGTGCAG”, the binding signal is 24100 fluorescence intensity (a.u.). For “ATGAGATTGATGAGCAGTGAGGACGGCTAGAGATAGCTTACGGAGTCACCTAGTGCAG”, the binding signal is 18900 fluorescence intensity (a.u.). Turning to “ATAGTATAATCAAGCTGATATAAACAAGTGCTCCCATGTGCGGAGTCACCTAGTGCAG”, the binding signal is 3430 fluorescence intensity (a.u.). The result for “CCTAATTTACTACTGCGTCTCTTATGTTCAGTATCTGTTCCGGAGTCACCTAGTGCAG” reads 27500 fluorescence intensity (a.u.). With “TTAATTCTCATTCTTTAATTAATTTGGCCGTGGATTTATTCGGAGTCACCTAGTGCAG” the figure was 3430 fluorescence intensity (a.u.).

On to “CAAGGTAATAGATTACTATAGTTTATCAAATTCTCCATGACGGAGTCACCTAGTGCAG”, for which the binding signal is 11200 fluorescence intensity (a.u.). The result for “TTCTGATTTGCCCCTATCTTATTGAGATTGCTTGTGTGATCGGAGTCACCTAGTGCAG” reads 30600 fluorescence intensity (a.u.); that for “CCACAAATCAGTTCATTTGACAAGCCAACACAGTGATTAGCGGAGTCACCTAGTGCAG”, 12900 fluorescence intensity (a.u.); that for “TGTAAACTGCCTCATCAACCTTCTGCGCCCGGGCATACTTCGGAGTCACCTAGTGCAG”, 4150 fluorescence intensity (a.u.).
